Values joined by “and” are separate entries in the source; they are usually repeats but may differ in a detail not shown here. Equal values may be shown once.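 Cells were grown in 96-well plates and exposed to each compound for 48 hours at five concentrations; endpoints were interpolated linearly between bracketing concentrations, or set to the highest concentration if not reached. GI50 = concentration required for 50% inhibition of growth. TGI: concentration producing complete growth inhibition.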
System: NCI-H322M lung
Assay: NCI anticancer screen, dose series, 48 h

Point of comparison: COc1ccc2nc3c([N+](=O)[O-])ccc4c3c(c2c1)N=CN4CCN(C)C, TGI 13.1 µM. Against it:
- CC(=O)OC(C)(C)C[N+](=O)[O-] — higher, > 100 µM
- CC1=C(C(=O)NNC(=O)c2ccccc2O)CC(C(=O)NNC(=O)c2ccccc2O)=C(C)N1 — higher, > 100 µM
- O=C(Cn1c2ccc(Br)cc2c2nc3ccccc3nc21)N1CCOCC1 — higher, > 100 µM
- O=C(N/N=C/c1cc(Cl)cc(Cl)c1[O-])c1ccccc1O.O=C(N/N=C/c1cc(Cl)cc(Cl)c1[O-])c1ccccc1O.[Fe+2] — 2.2-fold higher, 29.4 µM
- CCOC(=O)C(C(=O)OCC)S(C)(=O)=O — higher, > 100 µM
- CC(=O)C(C(=O)C(=O)Nc1cc(Cl)c(Cl)cc1Cl)c1csc(N)n1 (centres undefined) — higher, > 100 µM
- Cc1c(C(=O)/C=C/c2ccc(Cl)cc2)nnn1-c1ccnc2c(C(F)(F)F)cccc12 — higher, > 100 µM
- CCn1c(=O)c2c3ccc(O)cc3[nH]c2c2ccc(O)cc21 — higher, > 100 µM
- CCOC(=O)C(CCSC)(CCSC)C(=O)OCC — higher, > 100 µM
- CC(C)(C)c1cc(OCc2n[nH]c(=S)n2N)c(Cl)cc1OCc1n[nH]c(=S)n1N — higher, > 100 µM
- COc1cc(C2SCC(=O)N2c2ccc(Cl)cc2)cc(OC)c1OC (centres undefined) — higher, > 100 µM
- COc1ccc2c(c1)C(=O)/C(=C/c1cccc(OCC(=O)c3ccc([N+](=O)[O-])cc3)c1)CO2 — 2.3-fold higher, 30 µM
- CCc1cc2c(Nc3ccccc3)c3c(nc2s1)CCCC3 — higher, > 100 µM
- CCOC(OCC)[C@@H]1C[C@@H]2N(O[C@H](OC3CCCC3(c3ccccc3)c3ccccc3)[C@H](OC(C)=O)[C@@]2(CC)Cc2ccc(OC)c(OC)c2)O1 (some centres undefined) — higher, > 100 µM
- O=C(CS(=O)c1nc2ccccc2nc1-c1ccccc1)Nc1ccc(Cl)cc1 (centres undefined) — 5.9-fold higher, 77.7 µM
- CC(=O)OC1CC2C(=O)CC1(C)C2(C)C (centres undefined) — higher, > 100 µM
- CN(C)c1ccc2cc3c(cc2c1)Oc1ccccc1N3.[Cl][Zn][Cl] — 2.1-fold higher, 27.2 µM
- O=C(/C=C/c1ccc(Cl)cc1)c1nc2ccccc2[nH]1 — higher, > 100 µM
- Cc1c2c(n3c(nc4ccccc43)c1C#N)NCC2 — not separable, > 10 µM
- O=c1oc2c(O)c(O)cc3c(=O)oc4c(O)c(O)cc1c4c23 — higher, > 100 µM
- O=C(C(=O)c1cccnc1)c1cccnc1 — higher, > 100 µM
- Fc1ccc(-c2c(-c3ccncc3)[nH]c3cccnc23)cc1 — higher, > 25 µM
- CN(CCO)c1nc(=O)c2c(n1C1OC(CO)C(O)C(O)C1O)CCCC2 (centres undefined) — higher, > 100 µM
- COc1ccccc1-c1ccc2c(N)c(C(=O)c3ccc4c(c3)OCO4)sc2n1 — 1.9-fold higher, 25.1 µM
- CCN(CC)CCC(=O)Nc1ccc2sc3ccccc3c(=O)c2n1 — 3.1-fold higher, 40.7 µM
- COc1cccc(C2c3cc4c(cc3OC(NNC(N)=O)C2C)OCO4)c1OC (centres undefined) — 7.1-fold higher, 93 µM
- COc1ccccc1/C=C1\CCC(CN2CCOCC2)C1=O (centres undefined) — 2.5-fold higher, 32.5 µM
- CCOC(=O)CN1C(=O)c2c(NC(=O)C(=O)O)cccc2S1(=O)=O — higher, > 100 µM
- CSC(=NC(=O)c1ccccc1)SCCSC(=NC(=O)c1ccccc1)SC — higher, > 100 µM
- CC1(C)C=C(N2CCN(C3=CC(C)(C)NC(C)(C)C3)CC2)CC(C)(C)N1 — higher, > 100 µM
- Cc1cnc(-c2ccc(-c3ccc(NC(=O)Nc4cccc(C(F)(F)F)c4)cc3F)c3c2C(=O)NC3)[nH]1 — higher, > 100 µM
- CCOC1Oc2ccccc2C(=O)/C1=C\Nc1ccc(C(=O)O)c(O)c1 (centres undefined) — higher, > 100 µM
- Cn1c2ccccc2c(=NNc2ccc(S(=O)(=O)N=C(N)N)cc2)c2ccccc21 — within 1.5-fold, 19.1 µM
- Cc1cc(=O)n2c(cc3cccccc32)n1 — higher, > 100 µM
- CN1CCN(C(=O)[C@@]2(C)CC[C@]3(C)CC[C@]4(C)C(=CC[C@@H]5[C@@]6(C)CC[C@H](OC(=O)c7cccnc7)C(C)(C)[C@@H]6CC[C@]54C)[C@@H]3C2)CC1 — 2.5-fold lower, 5.16 µM
- Nc1n[nH]c(N)n1 — higher, > 10000 µM
- O=[N+]([O-])c1cc(C(F)(F)F)cc2c1SC1=Nc3ccccc3CN12 — higher, > 100 µM
- CN(CCCNC(=O)c1cn(C)c2c1ccc1ccccc12)CCCNC(=O)c1cn(C)c2c1ccc1ccccc12 — within 1.5-fold, 12.2 µM
- COc1ccc(C(=O)/C=C/c2c(C(F)(F)F)nc3ccccn23)cc1OC — higher, > 75.1 µM
- CCCCCCC(O)C(=O)OC1C2C(CC1(C)C)C(O)C13OC1C(O)C1(CO1)[C@@]23C (some centres undefined) — higher, > 100 µM

Point of comparison: Cc1c(C(=O)/C=C/c2ccc(Cl)cc2)nnn1-c1ccnc2c(C(F)(F)F)cccc12, GI50 37.4 µM. Against it:
- O=C(N/N=C/c1cc(Cl)cc(Cl)c1[O-])c1ccccc1O.O=C(N/N=C/c1cc(Cl)cc(Cl)c1[O-])c1ccccc1O.[Fe+2] — 2.8-fold lower, 13.5 µM
- COc1ccc2c(c1)C(=O)/C(=C/c1cccc(OCC(=O)c3ccc([N+](=O)[O-])cc3)c1)CO2 — 2.4-fold lower, 15.7 µM
- O=C(CS(=O)c1nc2ccccc2nc1-c1ccccc1)Nc1ccc(Cl)cc1 (centres undefined) — within 1.5-fold, 25.7 µM
- CN(C)c1ccc2cc3c(cc2c1)Oc1ccccc1N3.[Cl][Zn][Cl] — 2.7-fold lower, 13.7 µM
- O=C(C(=O)c1cccnc1)c1cccnc1 — higher, > 100 µM
- Fc1ccc(-c2c(-c3ccncc3)[nH]c3cccnc23)cc1 — 3.3-fold lower, 11.3 µM
- COc1ccccc1-c1ccc2c(N)c(C(=O)c3ccc4c(c3)OCO4)sc2n1 — 5.7-fold lower, 6.56 µM
- Cc1cnc(-c2ccc(-c3ccc(NC(=O)Nc4cccc(C(F)(F)F)c4)cc3F)c3c2C(=O)NC3)[nH]1 — within 1.5-fold, 26.5 µM
- CCOC1Oc2ccccc2C(=O)/C1=C\Nc1ccc(C(=O)O)c(O)c1 (centres undefined) — higher, > 100 µM
- CN1CCN(C(=O)[C@@]2(C)CC[C@]3(C)CC[C@]4(C)C(=CC[C@@H]5[C@@]6(C)CC[C@H](OC(=O)c7cccnc7)C(C)(C)[C@@H]6CC[C@]54C)[C@@H]3C2)CC1 — 17-fold lower, 2.21 µM
- COc1ccc(C(=O)/C=C/c2c(C(F)(F)F)nc3ccccn23)cc1OC — 12-fold lower, 3.16 µM

In the case of COc1ccc(C2CC(c3ccc4ccccc4c3)=NN2c2nc(O)c(C3=c4cc(Cl)ccc4=NC3=O)s2)cc1 (centres undefined), the GI50 was 0.029 µM and < 0.005 µM.
